From PubChem BioAssay AID1963576 (National Center for Advancing Translational Sciences (NCATS), 2024)
Screen size: about 46,000 compounds; about 60 (0.1%) were called active. Roughly 3% stayed inconclusive and do not appear here. Calls come from the whole dose curve; as a rule, active = well fitted inhibition curve with a large enough effect; inconclusive = small, poorly fitted or top-dose-only effect; inactive = no such curve, though single readings can be large or run the other way. This is one part of the list.

Assay: Primary qHTS assay for Inhibitors of ovarian cancer metastasis using an organotypic tumor microenvironment (TME) model.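 For activity change, negative = inhibition: plate controls were DMSO wells for no effect and tomatine positive control wells for full effect.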 Note: nearly all actives have a fitted effect of over 65% in size.
Conditions: SKOV3ip1-GFP adhesion/invasion on 3D omental model, fluorescence; series mostly up to 45.8 µM; activity change, negative = inhibition: at the top concentration
Method in brief: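 Adhesion/invasion was scored as fixed GFP-labeled SKOV3ip1 cell counts (488/509 nm), normalized to DMSO and tomatine controls. Cancer cells in serum-free medium, with four compound doses (0.36-46 umol/L), sat 2 hr at RT then 16 hr at 37 C on a 48 hr fibroblast/mesothelial/ECM culture.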

Activity change, negative = inhibition, inactive:
CCN(CC)CCOc1ccc(Nc2ncc3cc(-c4c(Cl)cccc4Cl)c(=O)n(C)c3n2)cc1 -24.8%
O=S(=O)(c1ccc(Br)s1)N1CCN(c2cccc(C(F)(F)F)c2)CC1 -1.58%
O=C(NCCc1ccc(Cl)cc1)c1c2c(nc3ccccc13)C(=O)N(C1CCCCC1)C2 -1.06%
CC1CCN(CC2CCN(C(=O)NCc3ccccc3)CC2)CC1 -10.3%
CCCCCCn1nnc2sc(-c3ccccc3)cc2c1=O -8.92%
Cc1ccccc1C(=O)Nc1cc(C)c(O)c(-c2nc3ccccc3o2)c1 9.46%
CC1(C)O[C@H]2C[C@@H]3[C@H]4CCC5=CC(=O)C=C[C@]5(C)[C@@]4(F)[C@@H](O)C[C@]3(C)[C@]2(C(=O)CO)O1 23.4%
COc1ccc(CNC(=O)CCNS(=O)(=O)c2ccc3c(c2)oc(=O)n3C)cc1 -15.7%
CCn1cc(C(=O)N(C)Cc2ccccc2)c(=O)c2cc(S(=O)(=O)N3CCc4ccccc4C3)ccc21 0.395%
COc1ccc(C2CC(=O)c3cc(-c4nc(-c5cccc([N+](=O)[O-])c5)cs4)c(=O)n(-c4ccccc4)c3C2)cc1 (stereo unspecified) -7.26%
COc1cc(C)ccc1OCCSc1nc2ccc(NC(=O)c3ccco3)cc2s1 3.82%
Cc1nn(C)c(C)c1S(=O)(=O)N(CC(=O)NCCc1ccccc1)c1ccc(C(C)C)cc1 2.58%
CC(=NNC(=S)N1CCC1)c1ccccn1 -4.39%
COc1cccc(C(=O)NCC2OCCc3ccccc32)c1 (stereo unspecified) 10.8%
COc1ccc(NC(=O)c2ccco2)cc1NC(=O)COc1ccc(C)c(C)c1 -6.94%
Cc1cccc(N2C(=O)CC(c3ccc(F)cc3)C3=C2COC3=O)c1 (stereo unspecified) -4.53%
CCCNC(=O)[C@H]1O[C@H]1C(=O)N[C@H](C(=O)N1CCC[C@@H]1C(=O)OC)C(C)CC (stereo partly specified) -12%
Cc1cc2c(cc1S(=O)(=O)NCc1ccc(F)cc1)n(C)c(=O)c(=O)n2C -3.38%
O=C(CSCc1ccc(F)cc1)N1CCN(c2ccccc2F)CC1 1.69%
CCCCNC(=O)c1nn(C)c2c1CSc1ccccc1-2 -5.06%
Cc1cn2c(=O)cc(COC(=O)c3ccc(NC(=O)COc4ccccc4C)cc3)nc2s1 -4.5%
Cc1ccc(-c2nn3c(-c4ccccc4C)nnc3c3ccccc23)cc1 -20.4%
CN1C(=O)C(Cc2c[nH]c3ccccc23)NC1=S (stereo unspecified) -14.4%
O=C(Cn1ncc2c([nH]c3ccccc32)c1=O)NCCCN1CCN(c2ccc(F)cc2)CC1 3.23%
CCc1ccccc1NC(=O)N1CCOc2ccccc21 3.25%
COc1ccc(OC)c(NC(=O)CSc2nc(=O)n(CCN(C)C)c3c2CCC3)c1 -7.3%
CCc1ccc(-n2c(=O)c3c4c(sc3n(Cc3ccccc3C#N)c2=O)CCCC4)cc1 2.11%
COc1ccc(S(=O)(=O)NCc2ccc3c(c2)CCN3C(=O)c2ccccc2)cc1OC -9.16%
CCOc1ccc(Nc2oc(-c3ccc(COc4ccc(OC)cc4)o3)nc2C#N)cc1 -16.2%
Cc1ccc(NC(=O)C(=O)NCC(c2cccnc2)N2CCN(Cc3ccccc3)CC2)cc1C (stereo unspecified) 1.06%
COc1ccccc1OCCn1c(NC(=O)c2ccccc2Cl)nc2ccccc21 -30.4%
Cc1cc(C)c(Nc2nc3ccccc3n3c(C)nnc23)c(C)c1 -12%
CCOc1ccc(-c2cc(C(=O)N3CCN(c4cc(Cl)ccc4C)CC3)c3ccccc3n2)cc1 -0.317%
CNc1c(NC(=O)c2ccc(OC)c(OC)c2)c(=O)oc2ccccc12 -20.6%
CCOC(=O)C1=C(CN2CCN(c3ccc(OC)cc3)CC2)NC(=O)NC1c1ccc(OC)cc1 (stereo unspecified) -13.7%
Cc1ccc(Nc2nc3nonc3nc2Nc2cccc(C(F)(F)F)c2)cc1Cl -16%
COc1ccc(NC(=O)Cn2cc(S(=O)(=O)N3CCN(c4ccccc4F)CC3)c3ccccc3c2=O)cc1Cl 6.8%
CCN(CC)CCCNc1oc(/C=C/c2ccc(OC)c(OC)c2)nc1C#N -7.56%
Cc1ccc(NC(=O)CSc2nnc3scc(-c4ccc(Cl)cc4)n23)cc1 2.25%
CCN(CC)C(=O)Cn1c(=O)cc(C)c2c(C)nn(-c3cccc(Cl)c3C)c21 -3.3%
Cc1cc2c(cc1S(=O)(=O)CCC(=O)N1CCC(C)CC1)OCC(=O)N2 4.51%
Cc1cc(C)cc(NC(=O)NCCc2c(C)nn(C)c2C)c1 -0.161%
CN(C)c1nc(Cc2ccc(NC(=O)c3ccc(C(F)(F)F)cc3)cc2)nc(N(C)C)c1CC(=O)O -3.78%
CC(=O)N1CCCc2cc(S(=O)(=O)N3CCCC(C(=O)N4CCN(c5cccc(Cl)c5)CC4)C3)ccc21 (stereo unspecified) -0.159%
CCOc1cc2sc(N3CCC(C(=O)Nc4ccc(CC)cc4)CC3)nc2cc1Br 0.157%
CC(C)C(=O)Nc1nnc2n1CCS2 29.3%
Cc1cc2c(n1-c1ccc(C(=O)NCCc3ccc(Cl)cc3)cc1)CCCC2 -2.39%
CCOC(=O)[C@@H](N)CCC(=O)N[C@@H](CSCc1ccccc1)C(=O)N[C@@H](C(=O)OCC)c1ccccc1 4.33%
Cc1nc(N2CCCC2)c2c(C(=O)N3CCN(c4ccccc4)CC3)c(C)oc2n1 -9.3%
COc1ccc(C)cc1NC(=O)c1noc2c1CSc1ccccc1-2 -0.315%
Cc1ccc(C)c(CSc2nc(-c3ccccc3F)nc3c2Cc2c(CO)cnc(C)c2O3)c1 -3.86%
COCCCNc1nc(NCc2ccccc2OC)c2cnn(C)c2n1 -3.18%
Cc1ccc(C)c(N2CCN(C(=O)c3cn(CC(C)C)c(=O)c4c3c3ccccc3n4C)CC2)c1 -10.6%
Cc1ccc(NC(=O)C2(c3cccs3)CCOCC2)cc1Cl -10.3%
CS(=O)(=O)N1CCc2cc(C(=O)N3CCN(c4cccc(Cl)c4)CC3)ccc21 -27.3%
Cc1ccc(NC(=O)C2(c3ccc4c(c3)OC(F)(F)O4)CC2)nc1-c1cccc(C(=O)O)c1 -6.05%
COCCNC(=O)CCC(=O)NNc1nc2ccccc2c2nc(C)nn12 -8.92%
CCOc1ccccc1NC(=O)c1c(NC(=O)COc2ccc(Cl)cc2)sc2c1CCCCC2 2.52%
Cc1ccc2c(CNCCc3ccccc3)c(C(=O)O)n(Cc3ccccc3C)c2c1 -8.55%
COc1cccc(NC(=O)Cn2nnc(C(=O)NCc3cccs3)c2N)c1 0.49%
COc1ccc(NC(=O)Cn2c(=O)n(-c3cc(C)cc(C)c3)c(=O)c3oc4ccccc4c32)cc1OC -1.43%
CCS(=O)(=O)N1CCCC(C(=O)NCCOC)C1 (stereo unspecified) -11.8%
Cc1ccc(C(=O)c2cn(CC(=O)Nc3ccc(C(C)C)cc3)c3nc(C)ccc3c2=O)cc1 0.731%
Cc1ccc(NC(=O)CSc2nnc(-c3ccc([N+](=O)[O-])cc3)o2)c(C)c1 -0.139%
CCCCCn1c(NCc2ccc(OC)cc2)nc2ccccc21 -0.693%
Cc1ccccc1N1CCN(S(=O)(=O)c2nnc(NC(=O)c3ccc(C(C)C)cc3)s2)CC1 3.93%
COC(=O)Cn1c(=O)c2cccn2c2ccc(F)cc21 -2.84%
COc1cc(NC(=O)c2cc(C3CC3)nc3c2c(C)nn3-c2ccccc2)cc(OC)c1 1.8%
Cc1cccc(N(C)c2nc3ccccc3c3nnc(C)n23)c1 -22.5%
CCOc1ccc(C(=O)Cn2c(=O)n3nc(CCn4nc(C)cc4C)nc3c3cc(OC)c(OC)cc32)cc1 -2.81%

outcome, inactive:
COCCn1c(SCC(=O)Nc2cc(Cl)ccc2OC)nc2c([nH]c3ccccc32)c1=O
CCOc1ccc(-c2nc(Cn3c(=O)cc(C)c4c(C)nn(-c5ccccc5)c43)c(C)o2)cc1
CCC1CN(C(=O)Nc2ccccc2F)c2cc(C)ccc2O1 (stereo unspecified)
CCN1c2ccccc2-c2nc(SCC(=O)Nc3cccc(C)c3C)ncc2S1(=O)=O
O=C(NCCc1ccccc1)c1ccc2c(c1)N(Cc1ccc(Cl)cc1)C(=O)CS2
CCc1ccc(NC(=O)CSc2ccnc(=O)[nH]2)cc1
Cc1ccc(C(=O)c2cn(Cc3cccc(Cl)c3)c3nc(C)ccc3c2=O)cc1
CCOC(=O)c1cc(-c2ccccc2)n(-c2cccc(C(=O)Nc3cccc(SC)c3)c2)c1C
COc1ccc(CCC(=O)NCCc2csc(-c3ccc(F)cc3)n2)cc1
COc1cc(NC(=O)CC2C(=O)N(c3ccccc3)C(=O)N2Cc2ccc(F)cc2)cc(OC)c1 (stereo unspecified)
CC1CCc2c(sc(NC(=O)Cc3ccccc3)c2C(=O)Nc2ccc(Cl)cc2)C1 (stereo unspecified)
CCCn1c2ccccc2c2cnn(CC(=O)Nc3cc(C)c(Cl)cc3OC)c(=O)c21
COc1ccc(NC(=O)CN2C(=O)CCn3nc(-c4cccn4C)cc32)cc1
COC(=O)c1ccc(Cl)cc1NC(=O)N1CC2CCCN2c2ccccc21 (stereo unspecified)
Cc1cc(Nc2ccccc2F)n2nc(-c3ccccc3)nc2n1
COc1cccc(CNC(=O)C2CCC(CNS(=O)(=O)c3ccc4c(c3)CCCC(=O)N4)CC2)c1 (stereo unspecified)
CCc1ccc(C(=O)c2cn(CC(=O)Nc3ccc4c(c3)OCO4)c3ccc(CC)cc3c2=O)cc1
CC(C)c1nn2c(=O)cc(COC(=O)c3cccc(NC(=O)COc4ccc(F)cc4)c3)nc2s1
Cc1ccc(S(=O)(=O)n2nc(C)c(S(=O)(=O)N3CCCCCC3)c2C)cc1
Cc1ccc(C)c(CSc2nnc3[nH]c(=O)cc(C)n23)c1
CCc1ccc(C(=O)c2cn(CC(=O)Nc3ccc(Cl)cc3)c3cc4c(cc3c2=O)OCO4)cc1
CCOc1ccc(CNC(=O)c2cccc(NC(=O)N3CCSc4ncccc43)c2)cc1OC
CCC(Cn1nnc2ccccc2c1=O)NC(=O)Nc1cc(C)cc(C)c1 (stereo unspecified)
COc1ccc(C2C(C(=O)Nc3ccccc3)=C(C)Nc3c(C(=O)Nc4ccccc4)cnn32)cc1 (stereo unspecified)
COc1ccc(Br)cc1C1C(C(=O)Nc2ccc(C)cc2C)=C(C)Nc2ncnn21 (stereo unspecified)
O=C(NCCc1ccccc1)c1nn(-c2ccccc2F)nc1CO
